From PMC10320511
No constants are given. Whether binding was seen depends on the method and setting. Binding seen in cells or lysates may run through a third protein. Some entries that bind do so weakly or less than the wild type. Where a sequence is shown, tags or fusion partners need not be part of it.

T1: FRQ Δ801–856, V5H6-tagged (Neurospora crassa) (UniProt P19970)
T1 sequence: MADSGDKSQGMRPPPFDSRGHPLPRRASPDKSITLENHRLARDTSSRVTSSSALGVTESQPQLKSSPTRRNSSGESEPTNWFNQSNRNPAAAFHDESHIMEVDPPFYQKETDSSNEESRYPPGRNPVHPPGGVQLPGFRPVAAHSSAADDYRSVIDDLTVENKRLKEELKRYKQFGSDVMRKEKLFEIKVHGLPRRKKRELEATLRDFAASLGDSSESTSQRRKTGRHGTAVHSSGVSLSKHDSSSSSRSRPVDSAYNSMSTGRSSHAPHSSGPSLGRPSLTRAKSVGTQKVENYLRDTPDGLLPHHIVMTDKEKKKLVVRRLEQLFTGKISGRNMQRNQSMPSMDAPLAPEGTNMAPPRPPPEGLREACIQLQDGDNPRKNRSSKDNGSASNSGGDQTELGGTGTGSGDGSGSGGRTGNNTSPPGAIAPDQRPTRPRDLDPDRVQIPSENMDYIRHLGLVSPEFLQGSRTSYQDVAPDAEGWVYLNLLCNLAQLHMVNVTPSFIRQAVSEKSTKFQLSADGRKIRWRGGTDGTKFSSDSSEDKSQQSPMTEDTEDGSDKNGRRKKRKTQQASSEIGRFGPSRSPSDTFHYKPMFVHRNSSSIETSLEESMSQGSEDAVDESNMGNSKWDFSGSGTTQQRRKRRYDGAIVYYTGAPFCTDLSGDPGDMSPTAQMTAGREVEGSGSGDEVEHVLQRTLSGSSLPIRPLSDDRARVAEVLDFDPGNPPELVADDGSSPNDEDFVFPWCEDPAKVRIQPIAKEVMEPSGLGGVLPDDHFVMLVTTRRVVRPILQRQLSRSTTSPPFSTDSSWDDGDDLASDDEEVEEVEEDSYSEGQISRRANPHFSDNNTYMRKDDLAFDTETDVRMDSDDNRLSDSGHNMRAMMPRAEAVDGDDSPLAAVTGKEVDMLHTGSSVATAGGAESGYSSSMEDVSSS

T2: FRQ 629–989, V5H6-tagged (Neurospora crassa) (UniProt P19970)
T2 sequence: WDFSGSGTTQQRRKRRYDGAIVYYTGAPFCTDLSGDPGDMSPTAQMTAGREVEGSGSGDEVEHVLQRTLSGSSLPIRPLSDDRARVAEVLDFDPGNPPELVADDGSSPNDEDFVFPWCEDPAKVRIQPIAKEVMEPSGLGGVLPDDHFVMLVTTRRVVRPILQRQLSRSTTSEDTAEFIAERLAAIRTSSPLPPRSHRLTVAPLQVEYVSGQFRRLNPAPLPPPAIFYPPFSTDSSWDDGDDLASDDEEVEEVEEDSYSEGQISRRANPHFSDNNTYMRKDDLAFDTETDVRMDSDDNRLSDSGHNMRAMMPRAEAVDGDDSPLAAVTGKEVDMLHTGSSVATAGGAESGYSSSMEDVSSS

T3: FRQ Δ775–800, V5H6-tagged (Neurospora crassa) (UniProt P19970)
T3 sequence: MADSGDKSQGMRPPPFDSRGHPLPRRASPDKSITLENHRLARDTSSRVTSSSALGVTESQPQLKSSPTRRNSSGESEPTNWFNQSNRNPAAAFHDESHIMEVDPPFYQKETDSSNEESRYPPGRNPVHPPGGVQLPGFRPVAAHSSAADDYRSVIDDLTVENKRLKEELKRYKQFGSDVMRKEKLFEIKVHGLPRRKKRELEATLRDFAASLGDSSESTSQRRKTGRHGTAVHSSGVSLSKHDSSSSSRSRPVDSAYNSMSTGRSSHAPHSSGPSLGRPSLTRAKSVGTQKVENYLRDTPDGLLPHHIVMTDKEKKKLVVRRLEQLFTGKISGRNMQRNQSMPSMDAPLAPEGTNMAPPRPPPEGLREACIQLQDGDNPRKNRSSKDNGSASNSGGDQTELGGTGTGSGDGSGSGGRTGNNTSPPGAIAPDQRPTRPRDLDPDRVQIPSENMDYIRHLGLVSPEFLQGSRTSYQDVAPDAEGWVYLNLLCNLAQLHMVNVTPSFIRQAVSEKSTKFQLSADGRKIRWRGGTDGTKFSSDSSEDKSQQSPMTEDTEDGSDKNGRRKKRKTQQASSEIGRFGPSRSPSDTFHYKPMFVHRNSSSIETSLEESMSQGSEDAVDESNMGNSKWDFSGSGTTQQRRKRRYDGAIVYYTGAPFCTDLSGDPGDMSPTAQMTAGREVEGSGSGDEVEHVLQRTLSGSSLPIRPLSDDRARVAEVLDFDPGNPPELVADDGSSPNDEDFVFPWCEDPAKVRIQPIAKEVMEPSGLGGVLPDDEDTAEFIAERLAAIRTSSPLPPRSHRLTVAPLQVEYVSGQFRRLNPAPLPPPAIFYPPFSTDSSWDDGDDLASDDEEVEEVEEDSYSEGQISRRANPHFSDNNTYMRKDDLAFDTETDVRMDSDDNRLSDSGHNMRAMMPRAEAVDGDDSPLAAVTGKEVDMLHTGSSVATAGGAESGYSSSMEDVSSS


What was measured:
Experiment in all cases: co-IP; V5H6-tagged FRQ (wild type or mutant) pulled down with V5 agarose from Neurospora lysate (cultures in the light, 25 °C); 50 mM Hepes pH 7.4, 137 mM NaCl, 10% glycerol, 0.4% NP-40; 4 °C, 2 h; Western blot with FRQ, FRH, WC-1 and WC-2 antibodies
[1] = target: T1, FRQ Δ801–856, V5H6-tagged (Neurospora crassa)
[2] = target: T2, FRQ 629–989, V5H6-tagged (Neurospora crassa)
[3] = target: T3, FRQ Δ775–800, V5H6-tagged (Neurospora crassa)

Binder	binding [1]	binding [2]	binding [3]
White Collar-2 (WC-2) (protein, UniProt P78714 1-530) MSHGQPPPGSSMYGFGAMGMGSGMGSGMGSGMGTGMGTGMGTGMSASQMTSDPQDMMSLLDTSVFPGFDGMSMSLDVGDSMSNPFTPVSVPPPLPAGNAGPSHVGVCGGHGAPDQLFSPDDLIATSMSSAGPMIATPTTTTSGPSGGPSSGGGSTLTEFTKRRNWPAKVVEELQDWEHILDANGRIKHVSPSVEPLTGYKPPEIIDLFLRDLIHPDDVGVFTAELNEAIATGSQLRLFYRFRKKDGNWTIFETVGHAHIAAAKFAPNPQNQSPFCQAVFMMARPYPTKNAGLLDSFLEHKIENERLKRRIAELRREEQEEQEESHRTWRMSQEGRSDVTPSDDTATQMGMTPFYIPMNAQADVMMPPPSQPASSLNIALTRENLEGIAGSRPDSIREKMLRYEGNHADTIEMLTGLKYQEGERSHGITTGNASPTLIKGDAGIAIPLDRDPRTGEKKKKIKVAEEYVCTDCGTLDSPEWRKGPSGPKTLCNACGLRWAKKEKKKNANNNNNGGGIGGHNDIHTPMGDHMG	no binding	no binding	no binding
FRQ-interacting RNA helicase (FRH) (protein, UniProt Q1K502 1-1106) MDDLFEVFEEQPRAQKKRKASPDVEMADGAAAAAPVANAAAAVTHPQAQAAPAPQKDNIDNNDNNNNNTTTSAVQPTIPNGDAAAAADDVQSPQSPHGLGDNKRRKKTDEAEPIMTDAFQTAESREVTGAQGFAPTEGESIVLSHNIQHQVALPPDLDYEYIPLSEHKPPAEPARTYSFKLDPFQALSVASIEREESVLVSAHTSAGKTVVAEYAIAQCLKKNQRVIYTSPIKALSNQKYRDFQAEFGDVGLMTGDVTINPTASCLVMTTEILRSMLYRGSEIMREVAWVVFDEIHYMRDKIRGVVWEETIILLPDKVRYVFLSATIPNAFQFAEWIAKIHRQACHVVYTDFRPTPLQNYFFPAGGKGILLIVDEKGNFKENNFNQAMAMIEEKKGTDSNDWSAKQKGKGKNKKTNKGGEAADEKADIAKIIKMILKKNFQPVIVFNFSKRECEQMALASSSMKFNAPDEENMVNKVFENALASLSEDDKNLPQISNILPLLRKGIGVHHSGLLPILKETIEILFQEGLIKVLFATETFSIGLNMPARTVVFTQVTKWDGQQRRPLTSSEYIQMAGRAGRRGLDDRGIVIMMVDDKLEPETARAIVVGNQDKLNSAFHLGYNMVLNLLRIEAISPEYMLERCFFQFQNAASVPQLERELISLQQERDAIIIPDESIVKDYYGVRQQLEEYNKDMVFVIQHPQNCLGFFQEGRLIHIKSPSGVDYGWGVLIKHIQRQTPKNGQPPYPEQESYVLDVLLKVSGDFNPKTRGEGPMPEGIMPAGKDSKNARWEVVPCLLNCLRALGQLRVFLPKRLESADEKDGVGKAVDEISRRFPDGIPILDPMENMGINDDSFKKLLRKIEVLESRLVANPLHNSPLLVELWNQYSLKMQLGEQIKEKKKAIARAHSVAQLDELKSRKRVLRRLGFINDAEVVQMKARVACEISSTEGHELLLAELLFNRFFNELSPEICACILSCFIFDEKIETQALKEELAKPFREIQAQARIIAKVSAESKLDVNEDEYVQSLKWQLMETVLAWAQGRPFSEICKMTNVYEGSLIRLFRRLEELLRQMAEAARVMGSEELKDKFELSLSKIRRDIVSFNSLYL	no binding	binds	no binding
